Article PMC4242493
Some of the results follow. The list includes weakly bound sequences.

Each sequence was assayed against MaxL homodimer (UniProt P61244) (assay: universal protein-binding microarray (PBM)). Conditions: PBS-based mixture, 10 nM His-tagged protein dimer, 2% milk, 200 ng/uL BSA, 50 ng/uL salmon testes DNA, 0.02% TX-100; detection with Alexa 488 anti-His …; high values mean tight binding; most listed sequences are background and not binding sites; double strand, one strand shown.
Chain of UniProt P61244 (P61244 whole entry): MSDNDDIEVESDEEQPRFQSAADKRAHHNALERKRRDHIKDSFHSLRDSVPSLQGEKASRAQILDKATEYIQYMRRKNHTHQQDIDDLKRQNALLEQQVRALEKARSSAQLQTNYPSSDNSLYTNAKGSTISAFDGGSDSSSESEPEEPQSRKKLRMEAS
CTGCCAGC was tested, and the binding signal (normalized occupancy) was 0.0669.
With GCATGCCC the binding signal (normalized occupancy) was 0.105.
CGTCCTTA showed a binding signal (normalized occupancy) of 0.0691.
CTGAACCC was tested, and the binding signal (normalized occupancy) was 0.0732.
ACCTCGAA gave a binding signal (normalized occupancy) of 0.0704.
Sequence ATTACCGC has a binding signal (normalized occupancy) of 0.0757.
Sequence AGGTTGTG has a binding signal (normalized occupancy) of 0.0771.
CAGTTAGG gave a binding signal (normalized occupancy) of 0.0719.
In the case of ACGGTACT, the binding signal (normalized occupancy) is reported as 0.0723.
CAGAGCTA showed a binding signal (normalized occupancy) of 0.0767.
For GCACAGCA, the binding signal (normalized occupancy) was 0.0738.
Sequence ACACAACC has a binding signal (normalized occupancy) of 0.0804.
Work on AGTGATAC yielded a binding signal (normalized occupancy) of 0.0753.
ATCCCGGC was tested, and the binding signal (normalized occupancy) was 0.0718.
In the case of GGTATACA, the binding signal (normalized occupancy) is reported as 0.0795.
With CCAACTTC the binding signal (normalized occupancy) was 0.0726.
In the case of CTTTTCAC, the binding signal (normalized occupancy) is reported as 0.0769.
With CTAAAAGC the binding signal (normalized occupancy) was 0.0718.
In the case of ACTTTGTG, the binding signal (normalized occupancy) is reported as 0.0718.
For ACGTTCGA, the binding signal (normalized occupancy) was 0.0752.
CATTACAC gave a binding signal (normalized occupancy) of 0.083.
With GCTTAGAA the binding signal (normalized occupancy) was 0.0745.
With ACTTCACA the binding signal (normalized occupancy) was 0.0776.
With AGTAGAGC the binding signal (normalized occupancy) was 0.0746.
CGCAGATA showed a binding signal (normalized occupancy) of 0.0755.
Work on GGAGATGA yielded a binding signal (normalized occupancy) of 0.0755.
In the case of ACTAAAGA, the binding signal (normalized occupancy) is reported as 0.0692.
CAACTAAG gave a binding signal (normalized occupancy) of 0.0704.
AGGTAAAC showed a binding signal (normalized occupancy) of 0.0708.
With AAGTTCCG the binding signal (normalized occupancy) was 0.0704.
In the case of CACCTTGC, the binding signal (normalized occupancy) is reported as 0.0768.
GTACTTGA showed a binding signal (normalized occupancy) of 0.0753.
Sequence GGGTCGGA has a binding signal (normalized occupancy) of 0.0765.
AGCATATC was tested, and the binding signal (normalized occupancy) was 0.0822.
GAGTCTCC showed a binding signal (normalized occupancy) of 0.0664.
CTCAGCAG gave a binding signal (normalized occupancy) of 0.0691.
In the case of GTAGATAA, the binding signal (normalized occupancy) is reported as 0.0803.
Work on AGACTGCG yielded a binding signal (normalized occupancy) of 0.068.
For AGTCTAAT, the binding signal (normalized occupancy) was 0.0747.
CAGATCAA gave a binding signal (normalized occupancy) of 0.0797.
Work on AGTCATTA yielded a binding signal (normalized occupancy) of 0.0788.
In the case of AGTGGGAA, the binding signal (normalized occupancy) is reported as 0.0701.
For GATGGTAA, the binding signal (normalized occupancy) was 0.0776.
With TGGGACAA the binding signal (normalized occupancy) was 0.0715.
Work on CACAGGTC yielded a binding signal (normalized occupancy) of 0.0763.
In the case of TCAGATAA, the binding signal (normalized occupancy) is reported as 0.0743.
GCACGTCA gave a binding signal (normalized occupancy) of 0.0831.
CATGATTA was tested, and the binding signal (normalized occupancy) was 0.0873.
AACACGTC gave a binding signal (normalized occupancy) of 0.0786.
CTTCTTAC showed a binding signal (normalized occupancy) of 0.0717.
CCCCAGGG gave a binding signal (normalized occupancy) of 0.0693.
In the case of AGCTGTGG, the binding signal (normalized occupancy) is reported as 0.0743.
For CGACAAAC, the binding signal (normalized occupancy) was 0.0751.
CCTGCAGA gave a binding signal (normalized occupancy) of 0.0713.
ATCGTCCC was tested, and the binding signal (normalized occupancy) was 0.0769.
AACCGTAG showed a binding signal (normalized occupancy) of 0.0704.
Work on CTGCACAC yielded a binding signal (normalized occupancy) of 0.0909.
Sequence TCGACACA has a binding signal (normalized occupancy) of 0.0806.
AATTATCA showed a binding signal (normalized occupancy) of 0.0842.
Sequence CAATTACG has a binding signal (normalized occupancy) of 0.081.
Sequence CCATATGA has a binding signal (normalized occupancy) of 0.0926.
Sequence GCCGCTGA has a binding signal (normalized occupancy) of 0.0652.
Sequence ACGATCCG has a binding signal (normalized occupancy) of 0.0754.
With CTCTCCGC the binding signal (normalized occupancy) was 0.0676.
GCATCGTA gave a binding signal (normalized occupancy) of 0.0732.
In the case of CATCCACC, the binding signal (normalized occupancy) is reported as 0.0815.
In the case of CGAAAACA, the binding signal (normalized occupancy) is reported as 0.0797.
AAACGGCC was tested, and the binding signal (normalized occupancy) was 0.0649.
For CGTAGATA, the binding signal (normalized occupancy) was 0.074.
AACTGCGG showed a binding signal (normalized occupancy) of 0.0712.
Work on CGGCGGCA yielded a binding signal (normalized occupancy) of 0.0666.
Work on AAAGTTGA yielded a binding signal (normalized occupancy) of 0.0725.
Work on CGATGCTC yielded a binding signal (normalized occupancy) of 0.0773.
CCACAGCA showed a binding signal (normalized occupancy) of 0.0776.
In the case of ATGGGAAT, the binding signal (normalized occupancy) is reported as 0.0864.
ATGTTATG was tested, and the binding signal (normalized occupancy) was 0.0822.
With CCCTTCAC the binding signal (normalized occupancy) was 0.0768.
With GCCCTAAC the binding signal (normalized occupancy) was 0.0753.
ACTGCTCG showed a binding signal (normalized occupancy) of 0.072.
In the case of CGCAGTAA, the binding signal (normalized occupancy) is reported as 0.0696.
Work on ACTTGCAC yielded a binding signal (normalized occupancy) of 0.0786.
CGTTAGCC was tested, and the binding signal (normalized occupancy) was 0.0755.
With CTGATCTA the binding signal (normalized occupancy) was 0.072.
Work on CCAACCGC yielded a binding signal (normalized occupancy) of 0.0755.
In the case of CGTAAGTA, the binding signal (normalized occupancy) is reported as 0.0786.
AATGCATT was tested, and the binding signal (normalized occupancy) was 0.0797.
For ATGGTCGC, the binding signal (normalized occupancy) was 0.0835.
GGAAATCA gave a binding signal (normalized occupancy) of 0.0775.
Sequence ACAGACAA has a binding signal (normalized occupancy) of 0.0737.
For CACCTTTC, the binding signal (normalized occupancy) was 0.0737.
ATTGGGAC gave a binding signal (normalized occupancy) of 0.0752.
Work on GGTAGCTA yielded a binding signal (normalized occupancy) of 0.0759.
ATATCCCC was tested, and the binding signal (normalized occupancy) was 0.0902.
GAGTCAAA gave a binding signal (normalized occupancy) of 0.0783.
With CGGCAGCA the binding signal (normalized occupancy) was 0.0759.
For CATTGCTC, the binding signal (normalized occupancy) was 0.0698.
ATACGTCA gave a binding signal (normalized occupancy) of 0.0792.
CACGGCAG gave a binding signal (normalized occupancy) of 0.077.
CCTAGTCG gave a binding signal (normalized occupancy) of 0.0709.
ACGTCTTA showed a binding signal (normalized occupancy) of 0.0796.
AGTTGGAC gave a binding signal (normalized occupancy) of 0.0711.
Sequence AATCACGT has a binding signal (normalized occupancy) of 0.099.
Sequence CATCCCGC has a binding signal (normalized occupancy) of 0.0771.
Work on GGTTGCCA yielded a binding signal (normalized occupancy) of 0.0746.
For GCCGGGTA, the binding signal (normalized occupancy) was 0.0681.
Work on CCAGTAAG yielded a binding signal (normalized occupancy) of 0.0736.
With GAGTGGGA the binding signal (normalized occupancy) was 0.0757.
For CCGACACG, the binding signal (normalized occupancy) was 0.0818.
CCCTGAAG was tested, and the binding signal (normalized occupancy) was 0.069.
In the case of GTGGACAA, the binding signal (normalized occupancy) is reported as 0.0784.
With CAATCTTC the binding signal (normalized occupancy) was 0.0707.
Sequence GCGTGTAC has a binding signal (normalized occupancy) of 0.1.
AAGGCGGG gave a binding signal (normalized occupancy) of 0.0744.
CCTAGATC was tested, and the binding signal (normalized occupancy) was 0.0788.
Work on AAGCAGCA yielded a binding signal (normalized occupancy) of 0.0684.
GTACGACA gave a binding signal (normalized occupancy) of 0.0784.
CCACGTGA showed a binding signal (normalized occupancy) of 0.482.
CGGCCAAC was tested, and the binding signal (normalized occupancy) was 0.0719.
GGCATCCA showed a binding signal (normalized occupancy) of 0.0782.
For CGTCAATC, the binding signal (normalized occupancy) was 0.0788.
Work on AATTGACG yielded a binding signal (normalized occupancy) of 0.072.
TCCCTGCA showed a binding signal (normalized occupancy) of 0.078.
With ATATGTGG the binding signal (normalized occupancy) was 0.0866.
GAGCAAGC gave a binding signal (normalized occupancy) of 0.0695.
CCGTTCTA showed a binding signal (normalized occupancy) of 0.0701.
With CCCCATCC the binding signal (normalized occupancy) was 0.0846.
In the case of ACGATTGA, the binding signal (normalized occupancy) is reported as 0.0852.
Sequence GAAGTGCC has a binding signal (normalized occupancy) of 0.0689.
With AGGTTAAT the binding signal (normalized occupancy) was 0.0754.
For AGAATCCG, the binding signal (normalized occupancy) was 0.0701.
Sequence CGACGTAG has a binding signal (normalized occupancy) of 0.0755.
With AAGTGTCG the binding signal (normalized occupancy) was 0.0698.
CCGTCGTC showed a binding signal (normalized occupancy) of 0.0708.
For AACTGTCA, the binding signal (normalized occupancy) was 0.0789.
Work on AGCTATGG yielded a binding signal (normalized occupancy) of 0.0735.
In the case of TACAGCTA, the binding signal (normalized occupancy) is reported as 0.0769.
ATTCTGCG was tested, and the binding signal (normalized occupancy) was 0.0748.
For AACTTTTA, the binding signal (normalized occupancy) was 0.0756.
Sequence CATAAGTA has a binding signal (normalized occupancy) of 0.0794.
In the case of CAGAATGG, the binding signal (normalized occupancy) is reported as 0.0752.
ATATGGAT was tested, and the binding signal (normalized occupancy) was 0.0898.
GCTAAGAA gave a binding signal (normalized occupancy) of 0.0741.
Sequence AACTTTGA has a binding signal (normalized occupancy) of 0.0709.
Sequence CCGATAAG has a binding signal (normalized occupancy) of 0.0715.
For CTGTGGAA, the binding signal (normalized occupancy) was 0.072.
With CCAGGGAC the binding signal (normalized occupancy) was 0.0698.
ACTGTAAC showed a binding signal (normalized occupancy) of 0.0739.
AACGGCTG showed a binding signal (normalized occupancy) of 0.0682.
Work on AAGTTTAT yielded a binding signal (normalized occupancy) of 0.0751.
For AAGACTCG, the binding signal (normalized occupancy) was 0.0694.
Work on AGGCAGCA yielded a binding signal (normalized occupancy) of 0.0781.
ACAAAAAT showed a binding signal (normalized occupancy) of 0.076.
Work on TCCCCCAA yielded a binding signal (normalized occupancy) of 0.0756.
For GGACCGTA, the binding signal (normalized occupancy) was 0.0673.
With AGATAGTC the binding signal (normalized occupancy) was 0.0791.
AGTAGAAT was tested, and the binding signal (normalized occupancy) was 0.0835.
With ACCCAATG the binding signal (normalized occupancy) was 0.0792.
CATTCTAA showed a binding signal (normalized occupancy) of 0.0721.
In the case of GGCGGACC, the binding signal (normalized occupancy) is reported as 0.0677.
With GCCTACCA the binding signal (normalized occupancy) was 0.0757.
AACCTGAA was tested, and the binding signal (normalized occupancy) was 0.0749.
AAGATGGC gave a binding signal (normalized occupancy) of 0.0717.
In the case of AAGAACGG, the binding signal (normalized occupancy) is reported as 0.0687.
AGAGTTAT was tested, and the binding signal (normalized occupancy) was 0.0773.
TCGCCCGA showed a binding signal (normalized occupancy) of 0.0722.
For ACCCAACA, the binding signal (normalized occupancy) was 0.0771.
CGAAAGAA was tested, and the binding signal (normalized occupancy) was 0.0716.
Sequence CAAGTTAC has a binding signal (normalized occupancy) of 0.0732.
For CATATGGC, the binding signal (normalized occupancy) was 0.0994.
With ATTCCGAA the binding signal (normalized occupancy) was 0.0735.
For GATGTGGC, the binding signal (normalized occupancy) was 0.0839.
CGACGCCG gave a binding signal (normalized occupancy) of 0.071.
